# Experimental data as given in the supplement of paper PMC8728848.
# Some of the results follow.
# Tests used:
# Test in all cases: glycan array binding signal (z-score within array); higher = stronger binding
# Conditions in all cases: glycan notation: IUPAC condensed, linker removed
# GlcNAc(b1-3)Gal(b1-4)Glc = target: GlcNAc(b1-3)Gal(b1-4)Glc
# In short: (§1)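 Glycan array data came from 3228 arrays in the Consortium for Functional Glycomics database, and only arrays with an available protein sequence were kept. Glycan names were put into IUPAC-condensed notation, and columns mapping to the same glycan were averaged. The binding signal is a within-array Z-score, averaged across arrays of one protein sequence run at different concentrations or buffers and across linkers. A negative Z-score can be read as non-binding.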
# [1] = target: GlcNAc(b1-3)Gal(b1-4)GlcNAc
# In short: as §1
# [2] = target: GlcNAc(b1-3)Gal(b1-4)GlcNAc(b1-3)Gal(b1-4)GlcNAc
# In short: as §1
# GlcNAc(b1-3)GalNAc = target: GlcNAc(b1-3)GalNAc
# In short: as §1
# GlcNAc(b1-3)Man = target: GlcNAc(b1-3)Man
# In short: as §1
# [3] = target: GlcNAc(b1-3)[GlcNAc(b1-4)][GlcNAc(b1-6)]GlcNAc
# In short: as §1
# [4] = target: GlcNAc(b1-3)[GlcNAc(b1-6)]Gal(b1-4)GlcNAc
# In short: as §1
# [5] = target: GlcNAc(b1-3)[GlcNAc(b1-6)]GalNAc
# In short: as §1
# [6] = target: GlcNAc(b1-4)Gal(b1-4)GlcNAc
# In short: as §1
# GlcNAc(b1-4)GlcNAc = target: GlcNAc(b1-4)GlcNAc
# In short: as §1
# [7] = target: GlcNAc(b1-4)GlcNAc(b1-4)GlcNAc
# In short: as §1
# [8] = target: GlcNAc(b1-4)GlcNAc(b1-4)GlcNAc(b1-4)GlcNAc(b1-4)GlcNAc
# In short: as §1
# [9] = target: GlcNAc(b1-4)GlcNAc(b1-4)GlcNAc(b1-4)GlcNAc(b1-4)GlcNAc(b1-4)GlcNAc
# In short: as §1
# [10] = target: GlcNAc(b1-4)[GlcNAc(b1-6)]GalNAc
# In short: as §1
# [11] = target: GlcNAc(b1-6)Gal(b1-4)GlcNAc
# In short: as §1
# GlcNAc(b1-6)GalNAc = target: GlcNAc(b1-6)GalNAc
# In short: as §1
# GlcNAc3Prop(b1-4)GlcNAc = target: GlcNAc3Prop(b1-4)GlcNAc
# In short: as §1
# [12] = target: GlcNAc6S(b1-3)Gal(b1-4)GlcNAc
# In short: as §1
# Kdn(a2-3)Gal(b1-3)GalNAc = target: Kdn(a2-3)Gal(b1-3)GalNAc
# In short: as §1
# Kdn(a2-3)Gal(b1-3)GlcNAc = target: Kdn(a2-3)Gal(b1-3)GlcNAc
# In short: as §1
# Kdn(a2-3)Gal(b1-4)Glc = target: Kdn(a2-3)Gal(b1-4)Glc
# In short: as §1
# Kdn(a2-3)Gal(b1-4)GlcNAc = target: Kdn(a2-3)Gal(b1-4)GlcNAc
# In short: as §1
# [13] = target: Kdn(a2-3)Gal(b1-4)[Fuc(a1-3)]GlcNAc
# In short: as §1
# Kdn(a2-6)Gal(b1-4)GlcNAc = target: Kdn(a2-6)Gal(b1-4)GlcNAc
# In short: as §1
# [14] = target: Man(a1-2)Man(a1-2)Man(a1-3)Man
# In short: as §1
# [15] = target: Man(a1-2)Man(a1-2)Man(a1-6)[Man(a1-3)]Man
# In short: as §1
# Man(a1-2)Man(a1-3)Man = target: Man(a1-2)Man(a1-3)Man
# In short: as §1
# [16] = target: Man(a1-2)Man(a1-3)[Man(a1-2)Man(a1-6)]Man
# In short: as §1
# [17] = target: Man(a1-2)Man(a1-3)[Man(a1-2)Man(a1-6)]Man(a1-6)[Man(a1-2)Man(a1-2)Man(a1-3)]Man
# In short: as §1
# [18] = target: Man(a1-2)Man(a1-3)[Man(a1-2)Man(a1-6)]Man(a1-6)[Man(a1-2)Man(a1-2)Man(a1-3)]Man(b1-4)GlcNAc(b1-4)GlcNAc
# In short: as §1
# [19] = target: Man(a1-2)Man(a1-3)[Man(a1-6)]Man(a1-6)[Man(a1-2)Man(a1-3)]Man(b1-4)GlcNAc(b1-4)GlcNAc
# In short: as §1
# [20] = target: Man(a1-2)Man(a1-6)[Man(a1-3)]Man(a1-6)[Man(a1-2)Man(a1-2)Man(a1-3)]Man
# In short: as §1
# [21] = target: Man(a1-2)Man(a1-6)[Man(a1-3)]Man(a1-6)[Man(a1-2)Man(a1-2)Man(a1-3)]Man(b1-4)GlcNAc(b1-4)GlcNAc
# In short: as §1
# Man(a1-3)[Man(a1-6)]Man = target: Man(a1-3)[Man(a1-6)]Man
# In short: as §1
# [22] = target: Man(a1-3)[Man(a1-6)]Man(a1-6)[Man(a1-2)Man(a1-3)]Man(b1-4)GlcNAc(b1-4)GlcNAc
# In short: as §1
# [23] = target: Man(a1-3)[Man(a1-6)]Man(a1-6)[Man(a1-3)]Man
# In short: as §1
# [24] = target: Man(a1-3)[Man(a1-6)]Man(a1-6)[Man(a1-3)]Man(b1-4)GlcNAc(b1-4)GlcNAc
# In short: as §1
# [25] = target: Man(a1-3)[Man(a1-6)]Man(b1-4)GlcNAc(b1-4)GlcNAc
# In short: as §1
# Man(a1-6)Man = target: Man(a1-6)Man
# In short: as §1
# Man(b1-4)GlcNAc = target: Man(b1-4)GlcNAc
# In short: as §1
# Neu5Ac(a2-3)Gal = target: Neu5Ac(a2-3)Gal
# In short: as §1
# [26] = target: Neu5Ac(a2-3)Gal(b1-3)GalNAc
# In short: as §1
# [27] = target: Neu5Ac(a2-3)Gal(b1-3)GalNAc(b1-3)Gal(a1-4)Gal(b1-4)Glc
# In short: as §1
# [28] = target: Neu5Ac(a2-3)Gal(b1-3)GalNAc(b1-4)[Neu5Ac(a2-3)]Gal(b1-4)Glc
# In short: as §1
# [29] = target: Neu5Ac(a2-3)Gal(b1-3)GalNAc(b1-4)[Neu5Ac(a2-8)Neu5Ac(a2-3)]Gal(b1-4)Glc
# In short: as §1
binder,measurement,setting,value
"GNAT (Pseudomonas aeruginosa), Q9HV14 (protein) MQLSHRPAETGDLETVAGFPQDRDELFYCYPKAIWPFSVAQLAAAIAERRGSTVAVHDGQVLGFANFYQWQHGDFCALGNMMVAPAARGLGVARYLIGVMENLAREQYKARLMKISCFNANAAGLLLYTQLGYQPRAIAERHDPDGRRVALIQMDKPLEP",glycan array binding signal (z-score),GlcNAc(b1-3)Gal(b1-4)Glc,-0.436
same,glycan array binding signal (z-score),[1],-0.38
same,glycan array binding signal (z-score),[2],-0.391
same,glycan array binding signal (z-score),GlcNAc(b1-3)GalNAc,-0.358
same,glycan array binding signal (z-score),GlcNAc(b1-3)Man,-0.257
same,glycan array binding signal (z-score),[3],-0.4
same,glycan array binding signal (z-score),[4],-0.389
same,glycan array binding signal (z-score),[5],-0.346
same,glycan array binding signal (z-score),[6],-0.345
same,glycan array binding signal (z-score),GlcNAc(b1-4)GlcNAc,-0.245
same,glycan array binding signal (z-score),[7],-0.363
same,glycan array binding signal (z-score),[8],-0.401
same,glycan array binding signal (z-score),[9],-0.423
same,glycan array binding signal (z-score),[10],-0.407
same,glycan array binding signal (z-score),[11],-0.392
same,glycan array binding signal (z-score),GlcNAc(b1-6)GalNAc,-0.336
same,glycan array binding signal (z-score),GlcNAc3Prop(b1-4)GlcNAc,-0.366
same,glycan array binding signal (z-score),[12],0.159
same,glycan array binding signal (z-score),Kdn(a2-3)Gal(b1-3)GalNAc,-0.04
same,glycan array binding signal (z-score),Kdn(a2-3)Gal(b1-3)GlcNAc,-0.345
same,glycan array binding signal (z-score),Kdn(a2-3)Gal(b1-4)Glc,-0.434
same,glycan array binding signal (z-score),Kdn(a2-3)Gal(b1-4)GlcNAc,-0.376
same,glycan array binding signal (z-score),[13],-0.233
same,glycan array binding signal (z-score),Kdn(a2-6)Gal(b1-4)GlcNAc,-0.436
same,glycan array binding signal (z-score),[14],-0.406
same,glycan array binding signal (z-score),[15],-0.311
same,glycan array binding signal (z-score),Man(a1-2)Man(a1-3)Man,-0.409
same,glycan array binding signal (z-score),[16],-0.44
same,glycan array binding signal (z-score),[17],-0.218
same,glycan array binding signal (z-score),[18],-0.327
same,glycan array binding signal (z-score),[19],-0.403
same,glycan array binding signal (z-score),[20],-0.075
same,glycan array binding signal (z-score),[21],-0.196
same,glycan array binding signal (z-score),Man(a1-3)[Man(a1-6)]Man,-0.205
same,glycan array binding signal (z-score),[22],0.122
same,glycan array binding signal (z-score),[23],-0.393
same,glycan array binding signal (z-score),[24],-0.351
same,glycan array binding signal (z-score),[25],-0.361
same,glycan array binding signal (z-score),Man(a1-6)Man,-0.294
same,glycan array binding signal (z-score),Man(b1-4)GlcNAc,-0.269
same,glycan array binding signal (z-score),Neu5Ac(a2-3)Gal,-0.39
same,glycan array binding signal (z-score),[26],-0.337
same,glycan array binding signal (z-score),[27],-0.419
same,glycan array binding signal (z-score),[28],-0.287
same,glycan array binding signal (z-score),[29],-0.155
